Test results reported in article PMC4336329 (PLoS ONE, 2015).
Screen size: about 310,000 compounds; about 14,000 (4.5%) showed an effect of 50% or more. The effect is printed as a negative number. Some of the results follow.

Each compound was assayed against human ether-à-go-go-related gene (hERG) potassium channel (human, UniProt Q12809) (assay: primary screen, population patch clamp on CHO cells stably expressing hERG).
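Further: peak tail current of the secondary pulse compared with the same well before compound.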

Sequence of human ether-à-go-go-related gene (hERG) potassium channel (Q12809 whole entry, looked up): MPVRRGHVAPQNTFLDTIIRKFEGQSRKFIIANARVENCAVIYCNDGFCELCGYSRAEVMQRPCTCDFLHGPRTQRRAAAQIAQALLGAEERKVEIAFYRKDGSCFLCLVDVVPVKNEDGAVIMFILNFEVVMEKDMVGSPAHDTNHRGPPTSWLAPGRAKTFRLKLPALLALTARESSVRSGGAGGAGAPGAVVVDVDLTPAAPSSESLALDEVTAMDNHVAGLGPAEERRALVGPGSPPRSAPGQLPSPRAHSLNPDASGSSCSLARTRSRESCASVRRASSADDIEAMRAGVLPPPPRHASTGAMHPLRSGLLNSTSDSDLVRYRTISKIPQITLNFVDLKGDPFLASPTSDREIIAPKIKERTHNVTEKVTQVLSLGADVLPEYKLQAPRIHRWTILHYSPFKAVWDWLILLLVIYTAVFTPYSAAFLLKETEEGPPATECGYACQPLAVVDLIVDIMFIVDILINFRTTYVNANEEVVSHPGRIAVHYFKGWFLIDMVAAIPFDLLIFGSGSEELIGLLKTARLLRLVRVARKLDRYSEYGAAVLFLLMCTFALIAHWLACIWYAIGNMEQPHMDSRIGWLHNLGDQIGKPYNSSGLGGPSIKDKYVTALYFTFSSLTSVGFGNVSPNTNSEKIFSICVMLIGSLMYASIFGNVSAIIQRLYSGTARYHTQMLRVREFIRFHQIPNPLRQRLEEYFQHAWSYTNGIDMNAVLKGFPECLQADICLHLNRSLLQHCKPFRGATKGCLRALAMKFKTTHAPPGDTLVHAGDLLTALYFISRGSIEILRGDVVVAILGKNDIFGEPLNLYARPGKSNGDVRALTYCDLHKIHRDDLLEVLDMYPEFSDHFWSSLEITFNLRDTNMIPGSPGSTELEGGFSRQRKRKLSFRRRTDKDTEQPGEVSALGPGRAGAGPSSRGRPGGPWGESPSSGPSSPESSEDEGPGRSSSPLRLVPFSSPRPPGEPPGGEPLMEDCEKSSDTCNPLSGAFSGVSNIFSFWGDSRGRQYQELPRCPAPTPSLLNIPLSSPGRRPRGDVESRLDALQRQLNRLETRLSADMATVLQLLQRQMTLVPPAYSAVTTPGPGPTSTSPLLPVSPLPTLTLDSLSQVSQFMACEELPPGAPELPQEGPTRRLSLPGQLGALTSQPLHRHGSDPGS

SMILES | hERG current change (%, negative = inhibition) at 10uM
O=C(O)c1cc2ccc3ccccc3c2oc1=O | 19.7%
NC(=O)c1ccc(NC(=O)COc2ccc(-n3cnnn3)cc2)cc1 | -4.26%
COC(=O)C1(C(C[N+](=O)[O-])c2ccc(C)cc2)C(=O)NCC1c1ccco1 (stereo not drawn) | 7.35%
O=C(O)c1ccc(CSc2nc3ccccc3[nH]2)cc1 | -30.5%
CNc1nnc(-c2ccc(C)cc2)c2ccccc12 | -39%
CCOC(=O)C1=C(CCc2ccccc2)NC(=O)NC1c1ccc(C#N)cc1 (stereo not drawn) | -16.7%
CCCN(CCC)c1ncnc2nc[nH]c12 | -7.36%
CCNC(=O)c1sc2cc(C)ccc2c1Cl | -3.25%
Cc1cc(NC(=O)CN2C(=O)NC(C)(c3ccc(Cl)cc3)C2=O)no1 (stereo not drawn) | 39.2%
COc1cccc(NC(=O)C2CCCO2)c1 (stereo not drawn) | 17.7%
COc1ccc(C(=O)Nc2ccc(C(=O)NCCc3ccccc3)cc2)cc1 | 10.6%
Cc1cccc(Nc2nc(N)nc(CCl)n2)c1C | 7.12%
O=C(Cn1cnc2c(nnn2Cc2ccc(F)cc2)c1=O)N1CCN(c2ccccc2)CC1 | -29.1%
CC(C)Cc1nnc(NC(=O)CCC(=O)NCCc2ccc(Cl)cc2)s1 | 30.2%
COc1ccccc1N1CCN(/N=C/c2cc(OC)c(OC(C)=O)c(OC)c2)CC1 | 19.5%
O=S(=O)(c1ccc(Br)cc1)c1nc(-c2ccco2)oc1NCC1CCCO1 (stereo not drawn) | -17.9%
CC(C)(C)OC(=O)NCCCCCNC(=O)c1[nH]cnc1C(=O)Nc1ccon1 | 1.99%
CC(=O)c1nnn(-c2nc(N3CCCC3)nc(N(c3ccccc3)c3ccccc3)n2)c1C | 13.6%
CCC(=O)Nc1nc2c(OC)ccc(OC)c2s1 | 11.4%
Cc1cccc(CN2CCN(C3CCCC3)C(CCO)C2)n1 (stereo not drawn) | 3.1%
CCOC(=O)CSc1cc(CS(C)(=O)=O)nc(-c2ccccn2)n1 | -28.1%
OCCC1CN(Cc2ccccc2-c2ccco2)CCN1Cc1ccsc1 (stereo not drawn) | -51%
CC(C(=O)Nc1ccccc1C(F)(F)F)N1CCN(C)CC1.O=C(O)C(=O)O (stereo not drawn) | 5.35%

SMILES | hERG current change (%, negative = inhibition) at 10uM
CN1C(=O)C(O)(CC(=O)c2cccnc2)c2ccccc21 (stereo not drawn) | 10.6%
C=CCSc1nc2c(c(=O)[nH]c(=O)n2C)n1Cc1ccc(C)cc1 | 17.6%
O=C1N/C(=C\c2ccccc2)C(O)=C1C=NCc1ccccc1 | 5.77%
CCN(CC)C(=O)c1nc[nH]c1C(=O)N1CCc2ccccc2C1 | 20.9%
O=C1CSC(=S)N1 | 35.1%
CC(=O)Nc1ccccc1C(=O)N1CC2(C)CC1CC(C)(C)C2 (stereo not drawn) | 10.8%
CCCn1c(NC(=S)Nc2ccccc2)nc2ccccc21 | 21.4%
CN(CCO)c1ccc(C(C(=O)c2ccccc2)c2ccc(N(C)CCO)cc2)cc1 | -5.99%
CNc1cc(N2CCNCC2)ccc1[N+](=O)[O-] | -2.63%
CCOC(=O)N1CCN(S(=O)(=O)c2ccc(C)c(C)c2C)CC1 | -3.25%
COc1ccc(NC(=O)NC23CC4CC(CC(C4)C2)C3)cc1OC | 2.71%
COc1ccccc1CCNC(=O)Nc1cccc([N+](=O)[O-])c1 | 13.5%
CSc1ccccc1-c1nnc(-c2ccccc2)o1 | 3.34%
Cc1cc2c(=O)n(CC(=O)NCC(=O)Nc3ccc(C(C)C)cc3)cnc2s1 | 13.1%
CC(=O)Nc1cccc(N2C(=O)CC(N3CCC(C(=O)N4CCCCC4)CC3)C2=O)c1 (stereo not drawn) | 17%
CCOC(=O)CC1C(=O)NCCN1C(=O)COc1ccc(C(C)(C)C)cc1 (stereo not drawn) | -2.65%
COc1ccc(/C=N/NC(=O)c2ccn[nH]2)cc1COc1ccc(Cl)cc1 | 2.09%
Cc1cc(=O)[nH]c2nnc(-c3ccc(Br)cc3)n12 | 5.99%
O=C1c2nccnc2C(=O)N1c1ccc(C(F)(F)F)cc1 | 36.3%
Cc1csc(Sc2nc3c(c(=O)[nH]c(=O)n3C)n2Cc2ccccc2Cl)n1 | -12.1%
Cc1cccc(-c2nc(CC(=O)Nc3cccc(S(=O)(=O)NC4=NCCC4)c3)cs2)c1 | -3.56%
O=c1oc2ccccc2c(Nc2ccc(F)cc2)c1[N+](=O)[O-] | -9.49%
